Hit rate of the full screen: of about 310,000 compounds, about 2,200 (0.71%) showed an effect of 50% or more. Effects have a minus sign here. This is one part of the list.
Target: human ether-à-go-go-related gene (hERG) potassium channel (human, UniProt Q12809)
Experiment: primary screen, population patch clamp on CHO cells stably expressing hERG

Sequence of human ether-à-go-go-related gene (hERG) potassium channel (Q12809 whole entry, looked up): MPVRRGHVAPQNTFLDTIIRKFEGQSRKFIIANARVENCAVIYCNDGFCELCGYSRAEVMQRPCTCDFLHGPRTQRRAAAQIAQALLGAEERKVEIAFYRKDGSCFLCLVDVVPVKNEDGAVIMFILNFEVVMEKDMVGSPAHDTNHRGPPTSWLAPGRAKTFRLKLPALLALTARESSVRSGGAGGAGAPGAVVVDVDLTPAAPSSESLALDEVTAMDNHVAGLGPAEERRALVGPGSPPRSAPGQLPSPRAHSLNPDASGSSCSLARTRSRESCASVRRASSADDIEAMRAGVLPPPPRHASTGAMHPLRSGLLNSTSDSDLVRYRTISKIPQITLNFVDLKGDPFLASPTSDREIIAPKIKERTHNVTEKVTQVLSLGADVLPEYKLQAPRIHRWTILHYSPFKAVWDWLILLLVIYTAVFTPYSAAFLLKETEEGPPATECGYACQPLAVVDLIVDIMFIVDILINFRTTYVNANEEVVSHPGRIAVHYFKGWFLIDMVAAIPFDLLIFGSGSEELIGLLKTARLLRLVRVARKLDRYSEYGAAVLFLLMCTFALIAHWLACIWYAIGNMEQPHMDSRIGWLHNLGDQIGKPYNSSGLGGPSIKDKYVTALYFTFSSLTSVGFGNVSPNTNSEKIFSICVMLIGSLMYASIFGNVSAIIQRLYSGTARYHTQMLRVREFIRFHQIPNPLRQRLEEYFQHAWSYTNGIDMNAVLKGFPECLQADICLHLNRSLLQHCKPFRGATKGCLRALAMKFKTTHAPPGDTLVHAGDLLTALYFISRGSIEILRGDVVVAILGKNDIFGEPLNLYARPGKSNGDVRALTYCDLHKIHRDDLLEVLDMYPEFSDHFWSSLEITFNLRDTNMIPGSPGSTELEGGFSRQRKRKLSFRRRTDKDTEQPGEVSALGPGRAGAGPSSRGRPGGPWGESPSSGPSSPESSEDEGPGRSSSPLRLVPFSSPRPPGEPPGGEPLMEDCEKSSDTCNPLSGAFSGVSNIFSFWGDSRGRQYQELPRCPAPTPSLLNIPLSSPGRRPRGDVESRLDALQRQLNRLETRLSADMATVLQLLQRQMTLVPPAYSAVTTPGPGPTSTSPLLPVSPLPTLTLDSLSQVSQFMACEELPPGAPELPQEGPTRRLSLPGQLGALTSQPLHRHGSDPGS

Compared with `CCOc1ccc(C2c3c(oc4ccccc4c3=O)C(=O)N2CCCN2CCOCC2)cc1` (stereo not drawn), `CCOc1ccc(NC(=S)N2c3ccccc3CC2C)cc1` (stereo not drawn) is lower in “hERG current change (%, negative = inhibition) at 1uM” value: 16% for the first, 5.75% for the second.

Going from `Cc1ccc(C(=O)NCc2ccc(Cl)c(Cl)c2)o1` to `COc1ccc(CCC(=O)NCc2cnn(C)c2)cc1`, the “hERG current change (%, negative = inhibition) at 1uM” value falls from 9.21% to 0.701%.

Going from `COc1ccc(-c2ccc(SCC(=O)c3cccs3)nn2)cc1OC` to `COc1ccc(C(=O)n2nc(C)cc2C)cc1OC`, the “hERG current change (%, negative = inhibition) at 1uM” value falls from 11.8% to -6.72%.

Compared with `CSc1ccc(CN2CCC(CO)(Cc3ccc(Cl)cc3)CC2)cc1`, `Cl.OC(CN1CCN(Cc2ccccc2)CC1)c1ccc(F)cc1` (stereo not drawn) is lower in “hERG current change (%, negative = inhibition) at 1uM” value: -29.5% for the first, -49.1% for the second.

First: CC(C)Sc1ccc([N+](=O)[O-])cc1C(=O)Nc1ccncc1
Second: O=C(CC1SCCNC1=O)Nc1cccc([N+](=O)[O-])c1 (stereo not drawn)
The “hERG current change (%, negative = inhibition) at 1uM” value of the first is higher: 12% for the first, 10.7% for the second.

Going from `CCN(CC)c1ccc(/C=C2/C(=O)ON=C2C)cc1` to `CCN(CC)c1cc(Cl)c2nonc2c1N`, the “hERG current change (%, negative = inhibition) at 1uM” value rises from -1.72% to 6.66%.

Going from `CC1(C)CC(=O)N(c2cccc(C(F)(F)F)c2)C(=O)C1` to `CC(=O)c1cccc(NC(=O)C(C)OC(=O)CN2C(=O)NC(C)(C)C2=O)c1` (stereo not drawn), the “hERG current change (%, negative = inhibition) at 1uM” value falls from 19.4% to 10.4%.

Going from `O=C(NNC(=O)c1ccc(-c2ccccc2)cc1)Nc1ccccc1` to `O=C(CSc1nnc(-c2c[nH]c3ccccc23)o1)c1ccc(-c2ccccc2)cc1`, the “hERG current change (%, negative = inhibition) at 1uM” value rises from 9.55% to 12.6%.

Compared with `COc1ccc(C(=O)C(C)[n+]2ccc(-c3nnc4n3CCCCC4)cc2)cc1.[Br-]` (stereo not drawn), `COc1ccc(C(=O)N2N=C3CC(C)(C)OCC3C2c2ccccc2)cc1` (stereo not drawn) is higher in “hERG current change (%, negative = inhibition) at 1uM” value: -7.71% for the first, -2.72% for the second.

First: CCC(=O)NCCc1nc2cc(NC(=O)COc3ccccc3)ccc2n1C
Second: COc1ccccc1C(=O)NCCC(=O)Nc1nc2ccccc2[nH]1
The “hERG current change (%, negative = inhibition) at 1uM” value of the first is higher: 18% for the first, 7.2% for the second.

Compared with `CC(=O)c1cccc(NC(=S)NCCc2ccc(F)cc2)c1`, `O=C(Cn1cnc2c(nnn2Cc2ccc(F)cc2)c1=O)Nc1cccc(F)c1` is lower in “hERG current change (%, negative = inhibition) at 1uM” value: 14.5% for the first, 4.23% for the second.

Compared with `Cc1cccc(NS(=O)(=O)c2ccc(-n3cccn3)cc2)c1C`, `COc1cccc(CN(Cc2cccnc2)S(=O)(=O)c2ccc(-n3cnnn3)c(C)c2)c1` is lower in “hERG current change (%, negative = inhibition) at 1uM” value: 24.8% for the first, -1.83% for the second.

Compared with `O=C(CNCc1ccco1)Nc1ccc(Oc2ccccc2)cc1.O=C(O)C(=O)O`, `CC(=O)c1ccc(NC(=O)CSc2nc(=O)cc(N)n2-c2ccccc2)cc1` is lower in “hERG current change (%, negative = inhibition) at 1uM” value: 8.01% for the first, -8.88% for the second.

First: C[C@H]1C=CC(=O)O[C@H]1c1ccccc1
Second: CC1CN(CC(=O)NN=C(c2ccccc2)c2ccccc2)CC(C)O1 (stereo not drawn)
The “hERG current change (%, negative = inhibition) at 1uM” value of the first is higher: 12.1% for the first, 9.32% for the second.

First: Cc1cc(=O)oc2cc(OCC(=O)OCC(=O)Nc3ccc(C(C)C)cc3)ccc12
Second: CCN(CC)S(=O)(=O)c1ccc(O)c(C(=O)OCC(=O)Nc2ccc(OC(F)(F)F)cc2)c1
The “hERG current change (%, negative = inhibition) at 1uM” value of the first is higher: 10.8% for the first, -7.47% for the second.

First: COc1ccc(Cn2c(CCC(=O)Nc3ccc(C)c(C)c3)nc3cccnc32)cc1
Second: COc1ccc(CN=C2NC(=O)CC(C(=O)Nc3ccccc3C)S2)cc1 (stereo not drawn)
The “hERG current change (%, negative = inhibition) at 1uM” value of the first is higher: 18.6% for the first, 4.34% for the second.

First: O=C(CN1CCOCC1)Nc1c(Cl)cc(Cl)cc1Cl
Second: O=C1CC(N2CCOCC2)C(=O)N1c1cc(Cl)cc(Cl)c1 (stereo not drawn)
The “hERG current change (%, negative = inhibition) at 1uM” value of the first is higher: 12.2% for the first, 0.284% for the second.

Compared with `CCCCn1c2nc3ccccc3nc2c2c(=O)n(CCC(C)C)cnc21`, `Cc1ccc(-n2c(NN)nc3ccccc3c2=O)c(C)c1` is higher in “hERG current change (%, negative = inhibition) at 1uM” value: 9.87% for the first, 17% for the second.

Compared with `CCOC(=O)C1C(=O)C=C(c2ccc(Br)cc2)CC1c1ccco1` (stereo not drawn), `CCc1ccc(CNC(=O)C2CC(=O)N(CCc3ccc(C)cc3)C2)cc1` (stereo not drawn) is lower in “hERG current change (%, negative = inhibition) at 1uM” value: 14.6% for the first, 0.313% for the second.

Compared with `COc1cc2oc3ccccc3c2cc1N(CC(=O)N1CCCCC1)S(=O)(=O)c1ccc(C)cc1`, `CN(C1CCCCC1)S(=O)(=O)c1cccc(C(=O)Nc2ccccn2)c1` is lower in “hERG current change (%, negative = inhibition) at 1uM” value: 6.03% for the first, -7.98% for the second.

First: COc1ccc(/C=N/NC(=O)CCCCCNC(=O)c2ccccc2)cc1
Second: CCN(c1ccccc1)S(=O)(=O)c1cccc(C(=O)NCc2ccncc2)c1
The “hERG current change (%, negative = inhibition) at 1uM” value of the first is lower: -0.422% for the first, 2.78% for the second.

Compared with `CCN(CC(=O)Nc1ccc(NC(C)=O)cc1)CC(=O)Nc1ccc(Cl)c(Cl)c1.O=C(O)C(=O)O`, `Cc1ccc(C(=O)NCC(=O)Nc2cc(C)ccn2)cc1` is lower in “hERG current change (%, negative = inhibition) at 1uM” value: 14.3% for the first, 11.5% for the second.

First: Cc1nc([N+](=O)[O-])c(C(=O)OCc2ccccc2F)n1C
Second: CCOC(=O)C(=O)NC(C)CCc1ccccc1 (stereo not drawn)
The “hERG current change (%, negative = inhibition) at 1uM” value of the first is lower: 6.26% for the first, 9.43% for the second.

First: Cc1ccc(NC(=O)CCC(=O)n2nc(C)cc2C)c(C)c1
Second: Cc1cc(C(=O)COC(=O)c2cccnc2Cl)c(C)n1CC1CCCO1 (stereo not drawn)
The “hERG current change (%, negative = inhibition) at 1uM” value of the first is higher: 1.81% for the first, -0.594% for the second.

First: CC(C)(C)OC(=O)N1CCC[C@H]1c1nnc(SCC(=O)Nc2cccc(Cl)c2)o1
Second: CCC(c1nnc(SCC(=O)Nc2ccc(Cl)cc2C(F)(F)F)n1C1CCCCC1)N(C)C (stereo not drawn)
The “hERG current change (%, negative = inhibition) at 1uM” value of the first is higher: 11.6% for the first, 8.47% for the second.

Compared with `O=[N+]([O-])c1ccc(C2NS(=O)(=O)N=C3CCCCCN32)cc1` (stereo not drawn), `CC(C#N)Sc1ccc(S(=O)(=O)N(C)C2CCCCC2)cn1` (stereo not drawn) is lower in “hERG current change (%, negative = inhibition) at 1uM” value: 11.7% for the first, 4.38% for the second.

Going from `COC(=O)c1ccc(N2C(=O)C3CC(C)=C(C)CC3C2=O)cc1` (stereo not drawn) to `COc1ccc(NC(=O)CN2CCN(c3ccc(F)cc3)CC2)cc1Cl`, the “hERG current change (%, negative = inhibition) at 1uM” value rises from 9.5% to 13.2%.

First: O=c1oc2ccccc2cc1-c1nc2c(s1)CCc1ccccc1-2
Second: COc1ccc2c(c1OC)C(=O)OC2Nc1nc(-c2cc3cc(Br)ccc3oc2=O)cs1 (stereo not drawn)
The “hERG current change (%, negative = inhibition) at 1uM” value of the first is lower: 6.26% for the first, 20.5% for the second.

First: CCC(C)n1c(/C=C/c2ccccc2)nc2ccccc21 (stereo not drawn)
Second: COCC(N)(c1ccccc1)c1nc2ccccc2n1C (stereo not drawn)
The “hERG current change (%, negative = inhibition) at 1uM” value of the first is higher: 6.21% for the first, 2.88% for the second.

Compared with `Cn1cc(S(=O)(=O)Cc2ccc(F)cc2)c2ccccc21`, `O=C(NCc1ccc(N2CCCC2=O)cc1)c1cn(CCc2ccccc2)nn1` is lower in “hERG current change (%, negative = inhibition) at 1uM” value: 10.2% for the first, 6.98% for the second.

First: COc1ccc(/C=N/NC(=O)C2CC2)c(OC)c1OC
Second: COc1ccc(OC)c(C2=NS(=O)(=O)N(C)C(C(=O)NCc3ccco3)=C2)c1
The “hERG current change (%, negative = inhibition) at 1uM” value of the first is higher: 15.4% for the first, 3.17% for the second.

Going from `CCCCOC(=O)COc1cc(C)cc2oc(=O)c3c(c12)CCC3` to `CCCS(=O)(=O)c1c(S(=O)(=O)CCC)c2c(C)cccn2c1C(=O)N/N=C/c1cc(O)cc(O)c1`, the “hERG current change (%, negative = inhibition) at 1uM” value rises from 4.2% to 12.4%.

Compared with `CS/C(=C\[N+](=O)[O-])Nc1ccc(C)cc1`, `CCOc1ccc(C(=O)Nc2ccc3c(c2)OCCO3)cc1` is lower in “hERG current change (%, negative = inhibition) at 1uM” value: 7.93% for the first, 3.77% for the second.

Going from `Cc1ccc(-c2nc(CSCC(=O)N3CCN(C(=O)c4ccco4)CC3)c(C)o2)cc1` to `Cc1ccc(C(=O)N[C@@H](Cc2ccccc2)C(=O)N2CCC3(CC2)NCCc2[nH]cnc23)cc1C`, the “hERG current change (%, negative = inhibition) at 1uM” value rises from -3.23% to 12.1%.

Going from `CCc1ccc2c(c1)C1(NN=C(c3ccccc3)S1)C(=O)N2` (stereo not drawn) to `COP(=O)(OC)c1nc(-c2ccccc2)oc1NCc1ccccc1`, the “hERG current change (%, negative = inhibition) at 1uM” value rises from 8.11% to 12.5%.

Going from `CCCc1nnc(NC(=O)CCC(=O)N2CCCCC2CC)s1` (stereo not drawn) to `NNC(=O)CCN1CCCCC1`, the “hERG current change (%, negative = inhibition) at 1uM” value rises from 5.93% to 17.2%.

Compared with `CC(C)(C)CC(C)(C)NC(=S)NC1CCN(Cc2ccccc2)CC1`, `CC1CN(Cc2ccccc2Cl)CC(C)O1` (stereo not drawn) is higher in “hERG current change (%, negative = inhibition) at 1uM” value: 6.14% for the first, 11.4% for the second.

Compared with `CCOc1cc(Br)ccc1S(=O)(=O)N1CC(C)OC(C)C1` (stereo not drawn), `CCCCS(=O)(=O)NC1=NCN(Cc2ccco2)CN1` is higher in “hERG current change (%, negative = inhibition) at 1uM” value: -2.78% for the first, 17.7% for the second.

First: O=C(CS(=O)(=O)c1ccccc1)c1ccc2c(c1)OCCO2
Second: CN(c1ccc(OC(=O)CC2OC(=O)c3ccccc32)cc1)S(=O)(=O)c1ccccc1 (stereo not drawn)
The “hERG current change (%, negative = inhibition) at 1uM” value of the first is lower: 8.7% for the first, 9.23% for the second.

Going from `CCS(=O)(=O)NC(C)C(c1cccs1)N1CCN(C)CC1` (stereo not drawn) to `CN1CCN(C2=Nc3cc(Cl)ccc3Nc3ccccc32)CC1`, the “hERG current change (%, negative = inhibition) at 1uM” value rises from 4.82% to 11.9%.

First: O=C(CSC1=NS(=O)(=O)c2ccccc2N1)Nc1cccc(F)c1
Second: CCN1CCN(c2ccc(NC(=O)c3cccc(F)c3)cc2Cl)CC1
The “hERG current change (%, negative = inhibition) at 1uM” value of the first is higher: 17.7% for the first, -8.27% for the second.

First: CCC(/C=C1\Sc2ccc(OC)cc2N1CC)=C\c1sc2ccc(OC)cc2[n+]1CCCS(=O)(=O)[O-]
Second: CC(=O)c1ccc(OCC(O)COc2ccc(C(C)=O)cc2)cc1
The “hERG current change (%, negative = inhibition) at 1uM” value of the first is higher: 10% for the first, 2.57% for the second.

First: Cc1ccc2nc(C)c3c(c2c1)N(c1ccccc1)CC3
Second: O=C(/C=C/c1ccccc1Cl)Nc1ccc(Cl)cn1
The “hERG current change (%, negative = inhibition) at 1uM” value of the first is lower: -70% for the first, 6.7% for the second.

First: O=C(c1cccs1)N1CCCC(N2CCN(c3ccc(F)cc3)CC2)C1 (stereo not drawn)
Second: O=C(NCC1CCCO1)c1cc2c(=O)[nH]c3ccccc3c2s1 (stereo not drawn)
The “hERG current change (%, negative = inhibition) at 1uM” value of the first is lower: -52.1% for the first, 1.21% for the second.

Going from `O=C1N=C(N2CCCC2)S/C1=C\c1cccc(Br)c1` to `Cc1nn(Cc2ccc(Cl)cc2Cl)c(Cl)c1/C=C/C(=O)OCC(=O)NCC(F)(F)F`, the “hERG current change (%, negative = inhibition) at 1uM” value rises from 8.12% to 9.84%.
